From ChEMBL document CHEMBL4888484, “Replenishing the malaria drug discovery pipeline: Screening and hit evaluation of the MMV Hit Generation Library 1 (HGL1) against asexual blood stage Plasmodium falciparum ,using a nano luciferase reporter read-out” (2022)
Screen size: about 4,800 compounds; about 410 (8.5%) showed an effect of 50% or more. The list shows a part of the results.

tested on: Plasmodium falciparum; assay: Confirmatory screen in NF54 pLDH assay, in single point, at 2uM, 72h; type: functional, Erythrocyte; conditions: timepoint 72 hour

SMILES	% Inhibition [%]
O=C1NC2(CCCCCCC2)C(=O)N1CN(C1CCCCC1)C1CC1	5
CC(=O)NCC(=O)N(Cc1ccco1)C1(C(=O)NC2CCCCC2)CCCCC1	8
c1cc2c(cc1[C@H]1NCCCCCCO1)OCO2	-5
Cc1cc(C)c(NC(=O)OCc2cccc3cccnc23)c(C)c1	80
Cc1noc(C)c1C(=O)N[C@@H](CC(C)C)C(=O)OCc1ccccc1	-2
COc1ccc(CN(c2ccc(C)cc2)S(=O)(=O)c2ccc3nnc(C)n3c2)cc1	-13
CC(C)c1nccn1CCC(=O)Nc1ncn(C2CCCCC2)n1	-5
Cc1ccc(S(=O)(=O)Nc2ccc(Oc3ccc(NS(=O)(=O)c4ccc(C)cc4)cc3)cc2)cc1	11
CCN(CC)C(=O)c1cnc2snc(C)c2c1N1CCC(C(=O)Nc2c(C)cc(C)cc2C)CC1	34
COc1ccc(C)cc1-n1ccc(C(=O)N2CCCc3c(C(N)=O)cccc32)n1	-4
O=C(C1CCC1)N1CCC[C@H]1c1nc(C2CCOCC2)no1	12
O=C(Nc1nncs1)NC(C1CC1)C1CC1	5
CCOc1cc2c(cc1OC)[C@@H](N)CC2=O	10
O=C1c2cnccc2[C@](O)(c2ccccc2)N1Cc1ccccc1	-22
Cc1ccsc1NC(=O)OC(C)(C)C	9
CNc1nccc(OCc2ccccc2)n1	9
O=C(c1cccc2cc[nH]c12)N(CC1CC1)C1CC1	12
Cc1sc2ncnc(N3CCCCC3)c2c1C(=O)Nc1cc(F)ccc1Cl	8
C[C@H]1CS(=O)(=O)N(c2ccc(C(=O)Nc3ccccc3Oc3ccccc3)c(Cl)c2)C1=O	-3
COc1cccc(C(=O)N2CCC(c3nc(-c4ccc5c(c4)OCO5)no3)CC2)c1OC	8
COc1ccccc1C(=O)NC1=NN2C(=NC(c3ccc(Cl)cc3)=C[C@H]2c2ccc(Cl)cc2)N1	92
Cn1c(Cc2n[n+]3c(-c4ccccc4)cc(-c4ccccc4)nc3n2C)n[n+]2c(-c3ccccc3)cc(-c3ccccc3)nc12	95
COc1ncnc2c1CN(C(=O)NCC1(Cc3ccccc3)CCC1)CC2	-1
COc1ccc(CC[C@H](C)NC(=O)NCCCN2CCCC2=O)cc1	11
CN(C(=O)NC1CCCC1)c1nc2c(s1)CN(Cc1ccccc1)C2=O	-13
O=C(Cc1ncc(C(F)(F)F)cc1Cl)c1ccc(Cl)cc1Cl	-1
C=CCNCc1cccc(OC)c1OCC(=O)NC(C)(C)C	6
CN1CCCN(c2ccc(NC(=O)c3nn(-c4ccccc4)c(=O)c4ccccc34)cc2F)CC1	68
